In the supplement of paper PMC11417369:
± gives the standard deviation of the averaged measurements. The list shows a part of the results.

tested on: PfAP2-G AP2 domain (GST-tagged); assay: gcPBM binding intensity (ln(normalized median fluorescence intensity)); higher = stronger DNA binding
How it was run: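 In this array assay, P. falciparum DNA-binding domains with a GST tag, expressed in E. coli, were applied for 1 h to primer-extended double-stranded 36-bp intergenic genomic probes and negative controls on an Agilent 4 × 180k array. Bound protein was visualised with Alexa488 anti-GST antibody at 488 nm. Binding intensity is the highest Masliner-normalised natural-log median intensity across replicate spots of either probe orientation.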

Row | Sequence | gcPBM binding intensity (ln)
1 | TACACCTGCACGATTGCACACAAATATGTTTTGAAG [CACACA_site8656] | 10.18 ± 0.071
2 | TTATTATTAAAACACACACACAAAAAAAAAAAAAAA [CACACA_site1480] | 9.83 ± 0.4
3 | AAAAAAAAAAAAAAAACACACATGTATAATATAATA [CACACA_site2209] | 10.2 ± 0.18
4 | AAGGACAACAAACAAACACACACAAAAAAAAAATAA [CACACA_site9263] | 10.2 ± 0.29
5 | AAGAATATAATCTTCACACATATATATATATATATA [CACACA_site5927] | 9.96 ± 0.43
6 | ATAATATATATATTATGTACATATAAATTTTTTTTT [XGTACX_site5826] | 11.2 ± 0.69
7 | AAATATTTTTTAATGTGTACATAGAACATATATATA [XGTACX_site3136] | 11.4 ± 0.91
8 | TATATACCTATATATACACACAAATACATAAGCTTC [CACACA_site1369] | 10.02 ± 0.042
9 | TAATTATATGGATACACACACATACATTTACATAAC [CACACA_site5744] | 10.4 ± 0.26
10 | TTTTTTAAAAAACAAACACACACGTAGAAAAAAAAA [CACACA_site826] | 10.4 ± 0.25
11 | AGTATACACAAACACACACACACAAAAAAAAAAAAA [CACACA_site8036] | 10 ± 0.48
12 | TCTACAAAATTATCATGTACATATTATTATAATTAT [XGTACX_site6585] | 11.1 ± 0.67
13 | AATAGTACAAAAAAAAAAAAAAAAAAAAAAAAAAAA [CACACA_negctrl_site1376] | 10.6 ± 0.92
14 | TAAAAAGAAAAAAAGAGTACAAACAAAATAATAATT [XGTACX_site6071] | 11.2 ± 0.64
15 | TATTTGCAATGCAAATGTACATGAATTTTTTTAATG [XGTACX_site7474] | 11.1 ± 0.73
16 | TATAACTATAAAAGGAGTACTATATATATATATATA [XGTACX_site1388] | 11.3 ± 0.93
17 | ACTTATTTATTTTTAGTGCATTTAGTTTTATTTTAT | 10.2 ± 0.13
18 | AAGAAAAATGTGTTTTTTTTTTTTTTTTTTTTCAAT [TGCATGCA_negctrl_site404] | 9.605 ± 0.035
19 | CTTTTTTTTTTAAATAGTACTTTCTCGTATACTCAT [XGTACX_site1842] | 11 ± 0.52
20 | TGTGAAATAAAATTTATACACACTTGCTAAATGATC [CACACA_site181] | 9.85 ± 0.13
21 | TTTTTTTATTTTTGTTGTACTTATAATTCTGTAAAA [XGTACX_site7344] | 11.5 ± 0.77
22 | TATAAATATAAATACACACACACACGCCAAAGCGTA [CACACA_site6181] | 10.2 ± 0.22

Row | Sequence | gcPBM binding intensity (ln)
23 | AAGTTTTTTTCTTTTTTTCTCTCTTTTTTTTTTTTT [XGTACX_negctrl_site613] | 9.54 ± 0.3
24 | TACAAATTAATATGTACACACAAATATAAATATGTA [CACACA_site7016] | 11.5 ± 0.98
25 | TACGTTATATACAACTGTACTTGGATAATTATTAAC [XGTACX_site5614] | 11.3 ± 0.73
26 | TTTTTTATTTATTGTTATACATCTTACTACTTATAA [GTGCAC_negctrl_site381] | 10.1
27 | AATATATTTATATATAGTACTTTTATAATATCGTTT [XGTACX_site6658] | 11 ± 0.56
28 | AATACACATAATACATGTACTCACATTGTTATAACA [XGTACX_site4129] | 11.4 ± 1
29 | GATATGATTAACTTATGTTATTCTTGATGATTACGT [CACACA_negctrl_site354] | 9.68 ± 0.11
30 | CTTAAATCTACTATTTGTACATATTTTATTATTAAA [XGTACX_site6151] | 10.9 ± 0.49
31 | TATTATAATAAAATATGTACACACATACACACATAT [XGTACX_site2360] | 11.5 ± 0.86
32 | CCCAATAATTAAACAACACACATATATATCTGTAAT [CACACA_site5667] | 9.78 ± 0.042
33 | ATAAAATGGGCAAACACACACAAAAAAAAGATATAT [CACACA_site1648] | 10.3 ± 0.35
34 | AGGGGCGAAACAAAGGTGCTTTTATAAAATATGTAA | 9.98 ± 0.21
35 | AGAAATCATCTGAATTGTACTAACAATTTTTTTTAA [XGTACX_site6191] | 11.1 ± 0.88
36 | AGAGAAGAAAACAAAACACACACATATATCTTAATA [CACACA_site8699] | 9.88 ± 0.057
37 | AACTTAAAAAAAAAAAAAAAAAAAAAAAAAAAAAAA [GTGCAC_negctrl_site34] | 9.64 ± 0.26
38 | ATATATATATATATATGTACTTATTTATTTTATATA [XGTACX_site8810] | 11.5 ± 1.1
39 | TATATATATATAAAGGTGCATATCTTTACGTATGTC [GTGCAC_site9665] | 10.2 ± 0.26
40 | ATATATATATATGATACATGCATATATTTTTTCTTC [TGCATGCA_site216] | 9.85 ± 0.28
41 | TTTTTTTTATCAAATTGTACATATACAAAGGTGATC [XGTACX_site8054] | 11 ± 0.78
42 | ATTTTATTTTTTAATAGTACTCATTTTTTATGTGAA [XGTACX_site5494] | 11.1 ± 0.76
43 | TAGATAAAATTAAAATGTACAAACCTTTTCCCTTAT [XGTACX_site1136] | 10.6 ± 0.32
44 | TACACGCAGAAACACACACACACACCCATATATATA [CACACA_site637] | 10.1 ± 0.25
